According to PubChem BioAssay AID1240 (Sanford-Burnham Center for Chemical Genomics, 2008):
The campaign covered roughly 50,000 compounds. About 800 (1.6%) showed an effect of 50% or more. The list shows a part of the results.

target: Bcl-2-like protein 10 (Homo sapiens) (UniProt Q9HD36); assay: TR3 peptide-Bcl-B binding displacers, biochemical primary FP assay, phenotype converters (AID 1240); conditions: GST-Bcl-B / FITC-TR3 peptide fluorescence polarization; stronger effect = higher value; compound at 3.75 mg/L;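 note: 0% = Bcl-B with tracer peptide and DMSO and 100% = tracer peptide lacking Bcl-B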
Sequence of UniProt Q9HD36 (Q9HD36 whole entry, looked up): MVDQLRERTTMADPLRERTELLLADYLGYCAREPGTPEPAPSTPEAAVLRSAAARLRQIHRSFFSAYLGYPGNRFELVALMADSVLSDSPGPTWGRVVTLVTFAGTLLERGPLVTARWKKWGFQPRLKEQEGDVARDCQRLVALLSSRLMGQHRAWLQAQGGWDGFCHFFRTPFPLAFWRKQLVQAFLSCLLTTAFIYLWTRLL

SMILES | displacement
CCCN1CCc2c(sc3[nH]c(=S)n(CCc4ccccc4)c(=O)c23)C1 | -8.4%
COc1cccc(OCCCCS)c1 | 10%
Cc1ccc(-n2c(C)cc(/C=C3\SC(=O)NC3=O)c2C)cc1C | 1.9%
O=C1C(=Cc2ccc(Br)cc2)C(=O)c2ccccc21 | 17.6%
O=C(O)C1CCCCC1C(=O)Nc1nc(-c2cccc3ccccc23)cs1 (stereo not given) | -3.7%
O/N=C(/c1ccccc1)c1cc2c(s1)CCCC/C2=N/O | -1.2%
NC(=O)c1nn2c(C(F)(F)F)cc(-c3ccccc3)nc2c1Cl | -7.4%
O=C(Nc1ccc(OC(F)(F)F)cc1)c1ccccc1Br | -0.9%
CC(=O)c1c(C)n(S(=O)(=O)c2ccccc2)c2ccc(NS(=O)(=O)c3ccccc3)cc12 | 8%
O=C(CSc1nc2ccccc2s1)NC(c1ccccc1)c1ccccc1 | 5.2%
NC(=O)c1c(NC(=O)CCN2C(=O)c3ccccc3C2=O)sc2c1CCC2 | 13.1%
CC(=O)n1cc(/C=C2\N=C(c3ccccc3F)OC2=O)c2ccccc21 | 7.6%
N/C(=N\OCC(=O)Nc1ccccc1)c1nonc1N | -1.1%
CCC(=O)Nc1ccc(NC(=O)c2ccc(OC)c([N+](=O)[O-])c2)cc1 | 1.6%
CC(=O)Nc1ccc(NC(=O)c2ccccc2OC(F)F)cc1 | 13.2%
CC1(C)Cc2c(sc(NC(=O)Nc3ccccc3)c2C(N)=O)CO1 | -5.6%
C=CCc1ccccc1OCCn1cc(C=C2C(=O)NC(=S)NC2=O)c2ccccc21 | 53.6%
Cc1ccc(CSCCNC(=O)c2ccc(OC3CSC3)cc2)cc1 | -15.9%
O=C(Nc1cccc(C(F)(F)F)c1)c1c(O)c2ccccc2[nH]c1=O | 5.9%
C/C(=C1/SC(N2CCOCC2)=NC1=O)c1ccc(Cl)cc1 | 31%
CCOc1cc(C=O)cc(I)c1OCc1ccc([N+](=O)[O-])cc1 | 0.1%
COc1ccc(OC)c(N(CC(=O)Nc2ccc(C(C)C)cc2)S(C)(=O)=O)c1 | 16%

SMILES | displacement
Cc1ccc(C(=O)c2ccc([N+](=O)[O-])cc2)c(C)c1 | 12.3%
CCOC(=O)CSc1nnc2c3ccccc3n(C)c2n1 | -6.2%
NS(=O)(=O)c1cccc(NC(=O)c2cccc3ccccc23)c1 | -8.4%
O=C1c2cc(S(=O)(=O)NCCCO)ccc2-c2ccc(S(=O)(=O)NCCCO)cc21 | 10.9%
CCN1C(=O)/C(=C\c2cn(Cc3ccccc3)c3ccccc23)SC1=S | 3.3%
O=C(O)CCCN1C(=O)/C(=C/c2ccccc2)SC1=S | -3.4%
COCCCNC(=O)C(=O)NCCc1ccc(OC)cc1 | 12.7%
COC(=O)CN(c1ccc(OC)cc1OC)S(=O)(=O)c1ccccc1[N+](=O)[O-] | -2.5%
COc1ccc(C(=O)Nc2ccc3c(c2)Cc2ccccc2-3)cc1 | 15.2%
COc1ccccc1NC(=O)N1CCN(c2cccc(C(F)(F)F)c2)CC1 | 9.8%
Cc1ccc(C)c(Cc2cc([N+](=O)[O-])ccc2C)c1 | 6.5%
CCOc1ccc2nc(NC(=O)CCC(=O)O)sc2c1 | 13.6%
CN(C)c1ccc(C(=O)N2CCN(c3cccc(Cl)c3)CC2)cc1 | 16.7%
Cc1ccc(NC(=S)NC(=O)c2ccco2)c(Br)c1 | 4.9%
COc1cccc(C(=O)Nc2ccc(Cl)c(-c3nc4cc(Cl)ccc4o3)c2)c1 | 105%
C=CCNC(=O)c1ccc(-c2cccc(Cl)c2)o1 | 8%
CCOc1ccc(/C=C2/SC(=S)N(CC(=O)O)C2=O)c(OCC)c1 | 9.6%
COC(=O)c1ccc(/C=C2/N=C(c3ccc(OC)cc3)N(c3ccc(F)cc3)C2=O)cc1 | 38.1%
COc1ccc(NC(=O)/C(=C/c2cccs2)NC(=O)c2cccs2)cc1 | -10.7%
O=C(O)/C=C/c1ccc(N2Cc3ccccc3C2)cc1 | -4.6%
Oc1ccc(C=NCC2(c3ccccc3)CCCC2)cc1 | -2.1%
Cc1ccccc1C(=O)Nc1cccc(N)c1 | 11.9%

SMILES | displacement
COc1ccccc1C1CC(c2ccc(C)cc2)=NN1C(C)=O (stereo not given) | 15.9%
Fc1cccc(/C=N/N2CCN(Cc3cccc4ccccc34)CC2)c1 | 8%
CC(C)(C)c1nnc(NC(=O)Nc2ccc(Cl)cc2)s1 | 11.1%
COc1ccc(C(O)Cc2nc3ccccc3n2C)cc1 (stereo not given) | 2.8%
COc1ccc(OCC(=O)NCCc2ccc(OC)c(OC)c2)cc1 | 4.5%
O=C(/C=C/c1ccc(-c2ccc(Cl)cc2Cl)o1)c1ccccc1 | 18.3%
Cc1ccc(C2=NN(C(=O)CCC(=O)O)C(c3cccc([N+](=O)[O-])c3)C2)cc1 (stereo not given) | 11.2%
COc1cc(NC(=O)C2CC2)c(OC)cc1Cl | 3.8%
O=C(Nc1cccc(Br)c1)c1ccc([N+](=O)[O-])cc1Cl | 0.8%
O=C(Nc1ccc(Cl)c(Cl)c1)Nc1nnc(COc2ccc([N+](=O)[O-])cc2)s1 | 8.3%
COc1cc(NS(=O)(=O)c2ccc(F)cc2)c(OC)cc1NC(C)=O | 5.2%
CCOc1ccc(NS(=O)(=O)c2ccc3nsnc3c2)cc1 | -3.3%
COc1ccc(CN2CCCN(Cc3ccc(OC)cc3)C2c2ccc(F)cc2)cc1 | 2.8%
CNc1cc([N+](=O)[O-])ccc1N/C=C\C(=O)c1ccc2ccccc2c1 | 14.1%
Clc1cccc(Cl)c1OCCCN1CCOCC1 | 5.8%
O=C1NC(=O)N(c2ccccc2F)C(=O)/C1=C/c1ccc(OCc2cccc(C(=O)O)c2)cc1 | 10.7%
COC(=O)C1=C(C)NC2=C(C(=O)c3ccccc32)C1c1ccc(-c2ccc([N+](=O)[O-])cc2OC)o1 (stereo not given) | 9.1%
CN1CCC(O)N1C(=O)c1ccccc1O (stereo not given) | 12.7%
CC(C)COc1ccc(C(=O)Nc2ccccc2)cc1 | 7.9%
CCOc1ccccc1NC(=O)CN(c1ccc(OC)cc1)S(=O)(=O)c1ccccc1 | 5.4%
CCCc1c(C)nc2ccc(OC)cc2c1SCC(=O)O | -4.3%
CCCCOc1ccc(C(=O)NCCc2ccccc2)cc1 | 9.6%

SMILES | displacement
COc1ccc(C(=O)N/C(=C\c2ccc(-c3cccc([N+](=O)[O-])c3)o2)C(=O)NC(C)C)cc1 | 11.2%
CCN(CC)C(=O)C1CN(S(=O)(=O)c2ccccc2)CCN1S(=O)(=O)c1ccccc1 (stereo not given) | 1.4%
COC(=O)C1=C(C)N(c2ccc(Br)cc2)C(=O)/C1=C\c1ccc(O)cc1 | -4.8%
CCOc1cccc(-c2cc(C(=O)N3CCN(C)CC3)c3ccccc3n2)c1 | -5.5%
COC(=O)c1cc(C(=O)Nc2ccc(C(N)=O)cc2)cc([N+](=O)[O-])c1 | 16.4%
CCOCCOC(=O)c1cccc(NC(=O)OCC)c1 | 3.8%
O=C1Nc2ccc(Br)cc2/C1=C/C(=O)c1ccc(Cl)cc1 | -5.6%
O=C(O)CN1C(c2ccccc2)=Nc2ccc(Br)cc2C1c1ccccc1 (stereo not given) | 6.6%
Cc1c(Cl)cccc1NC(=O)C(C)C | 1.4%
Cc1cc(=O)oc2ccc(OCC(=O)O)cc12 | 5.3%
O=C1c2cccc([N+](=O)[O-])c2C(=O)N1c1ccncc1 | -2.3%
CN(C)c1ccnc2sc(C(=O)Nc3ccccc3)c(N)c12 | -6.1%
CCN1CN=C2SC(CO)(CO)C(=O)N2C1 | 11.4%
Cn1c2ccc(I)cc2c2cc(C(=O)C(F)(F)F)ccc21 | -6%
COc1ccccc1Cc1noc(-c2ccc(OC)c(OC)c2)n1 | 9%
Cc1cc(NCCN2CCCCCC2)n2c(nc3ccccc32)c1C#N | 27.3%
CCc1ccccc1NC(=O)/C(C#N)=C\c1ccc(I)o1 | -7%
CN(C)c1ccc(NC(=O)c2cccc3ccccc23)cc1 | 23.3%
CCOC(=O)C1(C)C=C(Nc2ccc(S(=O)(=O)Nc3nccs3)cc2)C(=O)N1c1ccccc1 (stereo not given) | -4.7%
O=c1c2c(-c3ccccc3)csc2ncn1/N=C/c1ccccn1 | 18.5%
CC(C)(C)OC(=O)NNC(=O)C12CC3CC(CC(C3)C1)C2 | 2.1%
COc1ccc(NC(=O)CN(c2cccc(Br)c2)S(=O)(=O)c2ccccc2)cc1 | 6.6%

SMILES | displacement
Cc1ccc(C(=O)Nc2ccccc2C(=O)O)cc1 | 13%
O=c1oc2ccccc2c(NCc2ccco2)c1[N+](=O)[O-] | 1.2%
C=CCN1C(=O)/C(=C\c2ccc(-c3ccc(Cl)c(Cl)c3)o2)SC1=S | 50.1%
CC1(C(=O)Nc2ccccc2Cl)CC2c3ccccc3C1c1ccccc12 (stereo not given) | 0%
CC(C)N1C(=O)/C(=C/c2cccc([N+](=O)[O-])c2)SC1=S | 0.8%
O=C1S/C(=C\c2ccc(-c3ccccc3[N+](=O)[O-])o2)C(=O)N1c1ccccc1 | 47.7%
COc1ccccc1NC(=O)C1=C(C)NC(=O)NC1c1ccc(Cl)cc1Cl (stereo not given) | -13.4%
O=c1[nH]c(SCc2cccc3ccccc23)nc2ccccc12 | 4.4%
COc1ccc(CNS(=O)(=O)c2ccc(NC(C)=O)cc2)cc1 | -2.9%
Cc1cccc(-c2cc(C(=O)O)c3ccccc3n2)c1 | -4.1%
O=C(Nc1ccc(NC(=O)c2ccccc2Br)cc1)c1ccccc1Br | 13.4%
COC(=O)c1c(NC(=O)c2cc3ccccc3oc2=O)sc(C)c1C | -1.7%
Oc1c(Br)cc(/C=N/Nc2nc3ccccc3s2)c(O)c1Br | -6%
COc1ccc(-c2nc3cc(NC(=O)c4ccc([N+](=O)[O-])cc4Cl)ccc3o2)cc1OC | -2.4%
COc1ccc(C2CC(=O)NC(SCc3ccccc3)=C2C#N)cc1OCc1ccccc1 (stereo not given) | 7.8%
NS(=O)(=O)c1ccc(NC(=O)/C(=C\c2ccc(Br)cc2)NC(=O)c2ccccc2)cc1 | 1.8%
N#CC(C(=O)Nc1cccc2ccccc12)=C1CCCC1 | 0.5%
CCc1ccc(N2C(=O)/C(=C/c3ccc(I)o3)C(=O)NC2=S)cc1 | -30.7%
CC(/C=C/c1ccc2c(c1)OCO2)=N\NC(=O)COc1ccccc1[N+](=O)[O-] | 6.7%
CCc1ccc(N2C(=O)/C(=C/c3cc(Cl)c(OCC(=O)O)c(Cl)c3)C(=O)NC2=S)cc1 | -11.9%
COCc1cc(CN2CCOCC2)c(O)c2ncccc12 | -15.7%
COc1ccc(N(CC(N)=O)S(=O)(=O)c2ccccc2)cc1Cl | 12.3%
